The list shows a part of the results.
What was measured:
Assay in all cases: glycan array binding signal (z-score within array); higher = stronger binding
Conditions in all cases: glycan notation: IUPAC condensed, linker removed
[1] = biological target: Neu5Ac(a2-3)Gal(b1-4)GlcNAc(b1-6)GalNAc
In short: (§1)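 Glycan array data were curated from 3228 arrays in the Consortium for Functional Glycomics database and kept only where the protein sequence was available. Glycan names were converted to IUPAC-condensed notation, and columns mapping to the same glycan were averaged. The binding signal is a within-array Z-score, averaged across arrays of the same protein sequence at different concentrations or buffers and across linkers. Negative Z-scores can be read as non-binding.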

[2] = biological target: Neu5Ac(a2-3)Gal(b1-4)GlcNAc(b1-6)[Gal(b1-3)]GalNAc
In short: as §1

[3] = biological target: Neu5Ac(a2-3)Gal(b1-4)GlcNAc(b1-6)[Neu5Ac(a2-3)Gal(b1-3)]GalNAc
In short: as §1

[4] = biological target: Neu5Ac(a2-3)Gal(b1-4)GlcNAc6S
In short: as §1

[5] = biological target: Neu5Ac(a2-3)Gal(b1-4)[Fuc(a1-3)]GlcNAc
In short: as §1

[6] = biological target: Neu5Ac(a2-3)Gal(b1-4)[Fuc(a1-3)]GlcNAc(b1-2)Man
In short: as §1

[7] = biological target: Neu5Ac(a2-3)Gal(b1-4)[Fuc(a1-3)]GlcNAc(b1-3)Gal
In short: as §1

[8] = biological target: Neu5Ac(a2-3)Gal(b1-4)[Fuc(a1-3)]GlcNAc(b1-3)Gal(b1-4)GlcNAc
In short: as §1

[9] = biological target: Neu5Ac(a2-3)Gal(b1-4)[Fuc(a1-3)]GlcNAc(b1-3)Gal(b1-4)[Fuc(a1-3)]GlcNAc(b1-3)Gal(b1-4)[Fuc(a1-3)]GlcNAc
In short: as §1

[10] = biological target: Neu5Ac(a2-3)Gal(b1-4)[Fuc(a1-3)]GlcNAc(b1-3)GalNAc
In short: as §1

[11] = biological target: Neu5Ac(a2-3)Gal(b1-4)[Fuc(a1-3)]GlcNAc(b1-6)[Gal(b1-3)]GalNAc
In short: as §1

[12] = biological target: Neu5Ac(a2-3)Gal(b1-4)[Fuc(a1-3)]GlcNAc(b1-6)[Neu5Ac(a2-3)Gal(b1-3)]GalNAc
In short: as §1

[13] = biological target: Neu5Ac(a2-3)Gal(b1-4)[Fuc(a1-3)]GlcNAc6S
In short: as §1

[14] = biological target: Neu5Ac(a2-3)Gal6S(b1-4)GlcNAc
In short: as §1

[15] = biological target: Neu5Ac(a2-3)Gal6S(b1-4)[Fuc(a1-3)]GlcNAc
In short: as §1

[16] = biological target: Neu5Ac(a2-3)GalNAc
In short: as §1

[17] = biological target: Neu5Ac(a2-3)GalNAc(b1-4)GlcNAc
In short: as §1

[18] = biological target: Neu5Ac(a2-3)[GalNAc(b1-4)]Gal(b1-4)Glc
In short: as §1

[19] = biological target: Neu5Ac(a2-3)[GalNAc(b1-4)]Gal(b1-4)GlcNAc
In short: as §1

[20] = biological target: Neu5Ac(a2-3)[GalNAc(b1-4)]Gal(b1-4)GlcNAc(b1-3)GalNAc
In short: as §1

[21] = biological target: Neu5Ac(a2-3)[Neu5Ac(a2-6)]GalNAc
In short: as §1

[22] = biological target: Neu5Ac(a2-6)Gal
In short: as §1

[23] = biological target: Neu5Ac(a2-6)Gal(b1-3)GlcNAc(b1-3)[Gal(b1-4)GlcNAc(b1-6)]Gal(b1-4)Glc
In short: as §1

[24] = biological target: Neu5Ac(a2-6)Gal(b1-4)Glc
In short: as §1

[25] = biological target: Neu5Ac(a2-6)Gal(b1-4)GlcNAc
In short: as §1

[26] = biological target: Neu5Ac(a2-6)Gal(b1-4)GlcNAc(b1-2)Man
In short: as §1

[27] = biological target: Neu5Ac(a2-6)Gal(b1-4)GlcNAc(b1-2)Man(a1-3)Man(b1-4)GlcNAc(b1-4)GlcNAc
In short: as §1

[28] = biological target: Neu5Ac(a2-6)Gal(b1-4)GlcNAc(b1-2)Man(a1-3)[Gal(b1-4)GlcNAc(b1-2)Man(a1-6)]Man(b1-4)GlcNAc(b1-4)GlcNAc
In short: as §1

[29] = biological target: Neu5Ac(a2-6)Gal(b1-4)GlcNAc(b1-2)Man(a1-3)[GlcNAc(b1-2)Man(a1-6)]Man(b1-4)GlcNAc(b1-4)GlcNAc
In short: as §1

[30] = biological target: Neu5Ac(a2-6)Gal(b1-4)GlcNAc(b1-2)Man(a1-3)[GlcNAc(b1-4)][Neu5Ac(a2-6)Gal(b1-4)GlcNAc(b1-2)Man(a1-6)]Man(b1-4)GlcNAc(b1-4)GlcNAc
In short: as §1

[31] = biological target: Neu5Ac(a2-6)Gal(b1-4)GlcNAc(b1-2)Man(a1-3)[Man(a1-6)]Man(b1-4)GlcNAc(b1-4)GlcNAc
In short: as §1

[32] = biological target: Neu5Ac(a2-6)Gal(b1-4)GlcNAc(b1-2)Man(a1-3)[Neu5Ac(a2-3)Gal(b1-4)GlcNAc(b1-2)Man(a1-6)]Man(b1-4)GlcNAc(b1-4)GlcNAc
In short: as §1

[33] = biological target: Neu5Ac(a2-6)Gal(b1-4)GlcNAc(b1-2)Man(a1-3)[Neu5Ac(a2-6)Gal(b1-4)GlcNAc(b1-2)Man(a1-6)]Man(b1-4)GlcNAc(b1-4)GlcNAc
In short: as §1

[34] = biological target: Neu5Ac(a2-6)Gal(b1-4)GlcNAc(b1-2)Man(a1-3)[Neu5Ac(a2-6)Gal(b1-4)GlcNAc(b1-2)Man(a1-6)]Man(b1-4)GlcNAc(b1-4)[Fuc(a1-6)]GlcNAc
In short: as §1

[35] = biological target: Neu5Ac(a2-6)Gal(b1-4)GlcNAc(b1-2)Man(a1-6)Man(b1-4)GlcNAc(b1-4)GlcNAc
In short: as §1

[36] = biological target: Neu5Ac(a2-6)Gal(b1-4)GlcNAc(b1-2)Man(a1-6)[Gal(b1-4)GlcNAc(b1-2)Man(a1-3)]Man(b1-4)GlcNAc(b1-4)GlcNAc
In short: as §1

[37] = biological target: Neu5Ac(a2-6)Gal(b1-4)GlcNAc(b1-2)Man(a1-6)[GlcNAc(b1-2)Man(a1-3)]Man(b1-4)GlcNAc(b1-4)GlcNAc
In short: as §1

[38] = biological target: Neu5Ac(a2-6)Gal(b1-4)GlcNAc(b1-2)Man(a1-6)[Man(a1-3)]Man(b1-4)GlcNAc(b1-4)GlcNAc
In short: as §1

[39] = biological target: Neu5Ac(a2-6)Gal(b1-4)GlcNAc(b1-2)[Neu5Ac(a2-6)Gal(b1-4)GlcNAc(b1-4)]Man(a1-3)[GlcNAc(b1-4)][Neu5Ac(a2-6)Gal(b1-4)GlcNAc(b1-2)[Neu5Ac(a2-6)Gal(b1-4)GlcNAc(b1-6)]Man(a1-6)]Man(b1-4)GlcNAc(b1-4)GlcNAc
In short: as §1

[40] = biological target: Neu5Ac(a2-6)Gal(b1-4)GlcNAc(b1-2)[Neu5Ac(a2-6)Gal(b1-4)GlcNAc(b1-4)]Man(a1-3)[GlcNAc(b1-4)][Neu5Ac(a2-6)Gal(b1-4)GlcNAc(b1-4)Man(a1-6)]Man(b1-4)GlcNAc(b1-4)GlcNAc
In short: as §1

[41] = biological target: Neu5Ac(a2-6)Gal(b1-4)GlcNAc(b1-2)[Neu5Ac(a2-6)Gal(b1-4)GlcNAc(b1-6)]Man(a1-6)[Neu5Ac(a2-6)Gal(b1-4)GlcNAc(b1-2)Man(a1-3)][GlcNAc(b1-4)]Man(b1-4)GlcNAc(b1-4)GlcNAc
In short: as §1

[42] = biological target: Neu5Ac(a2-6)Gal(b1-4)GlcNAc(b1-3)Gal(b1-3)GlcNAc
In short: as §1

[43] = biological target: Neu5Ac(a2-6)Gal(b1-4)GlcNAc(b1-3)Gal(b1-4)GlcNAc
In short: as §1

[44] = biological target: Neu5Ac(a2-6)Gal(b1-4)GlcNAc(b1-3)Gal(b1-4)GlcNAc(b1-2)Man(a1-3)[Neu5Ac(a2-6)Gal(b1-4)GlcNAc(b1-3)Gal(b1-4)GlcNAc(b1-2)Man(a1-6)]GalNAc
In short: as §1

[45] = biological target: Neu5Ac(a2-6)Gal(b1-4)GlcNAc(b1-3)Gal(b1-4)GlcNAc(b1-3)Gal(b1-4)GlcNAc
In short: as §1

[46] = biological target: Neu5Ac(a2-6)Gal(b1-4)GlcNAc(b1-3)Gal(b1-4)GlcNAc(b1-3)Gal(b1-4)GlcNAc(b1-2)Man(a1-3)[Neu5Ac(a2-6)Gal(b1-4)GlcNAc(b1-3)Gal(b1-4)GlcNAc(b1-3)Gal(b1-4)GlcNAc(b1-2)Man(a1-6)]GalNAc
In short: as §1

B1: Clec18C (Homo sapiens) (protein)
chain: MLHPETSPGRGHLLAVLLALLGTAWAEVWPPQLQEQAPMAGALNRKESFLLLSLHNRLRSWVQPPAADMRRLDWSDSLAQLAQARAALCGTPTPSLASGLWRTLQVGWNMQLLPAGLVSFVEVVSLWFAEGQRYSHAAGECARNATCTHYTQLVWATSSQLGCGRHLCSAGQAAIEAFVCAYSPRGNWEVNGKTIVPYKKGAWCSLCTASVSGCFKAWDHAGGLCEVPRNPCRMSCQNHGRLNISTCHCHCPPGYTGRYCQVRCSLQCVHGRLREEECSCVCDIGYGGAQCATKVHFPFHTCDLRIDGDCFMVSSEADTYYRARMKCQRKGGVLAQIKSQKVQDILAFYLGRLETTNEVIDSDFETRNFWIGLTYKTAKDSFRWATGEHQAFTSFAFGQPDNHGFGNCVELQASAAFNWNNQRCKTRNRYICQFAQEHISRWGPGS
With B1 the “glycan array binding signal (z-score)” value [1] was 3.92, the “glycan array binding signal (z-score)” value [2] was -0.357 and the “glycan array binding signal (z-score)” value [3] was -0.585. The “glycan array binding signal (z-score)” value [4] was -0.455, the “glycan array binding signal (z-score)” value [5] was -0.378 and the “glycan array binding signal (z-score)” value [6] was -0.616. The “glycan array binding signal (z-score)” value [7] was -0.523, the “glycan array binding signal (z-score)” value [8] was -0.363 and the “glycan array binding signal (z-score)” value [9] was 0.997. The “glycan array binding signal (z-score)” value [10] was -0.116, the “glycan array binding signal (z-score)” value [11] was -0.465 and the “glycan array binding signal (z-score)” value [12] was -0.216. For the same binder, the “glycan array binding signal (z-score)” value [13] was -0.571, the “glycan array binding signal (z-score)” value [14] was -0.408 and the “glycan array binding signal (z-score)” value [15] was -0.56. For the same binder, the “glycan array binding signal (z-score)” value [16] was -0.575, the “glycan array binding signal (z-score)” value [17] was -0.537 and the “glycan array binding signal (z-score)” value [18] was -0.217. The “glycan array binding signal (z-score)” value [19] was -0.067, the “glycan array binding signal (z-score)” value [20] was 0.201 and the “glycan array binding signal (z-score)” value [21] was -0.495. For the same binder, the “glycan array binding signal (z-score)” value [22] was -0.318, the “glycan array binding signal (z-score)” value [23] was -0.234 and the “glycan array binding signal (z-score)” value [24] was -0.354. The “glycan array binding signal (z-score)” value [25] was -0.406, the “glycan array binding signal (z-score)” value [26] was -0.59 and the “glycan array binding signal (z-score)” value [27] was 0.624. For the same binder, the “glycan array binding signal (z-score)” value [28] was 0.359, the “glycan array binding signal (z-score)” value [29] was -0.556 and the “glycan array binding signal (z-score)” value [30] was -0.428. For the same binder, the “glycan array binding signal (z-score)” value [31] was -0.24, the “glycan array binding signal (z-score)” value [32] was -0.395 and the “glycan array binding signal (z-score)” value [33] was 0.183. For the same binder, the “glycan array binding signal (z-score)” value [34] was -0.029, the “glycan array binding signal (z-score)” value [35] was -0.555 and the “glycan array binding signal (z-score)” value [36] was -0.47. The “glycan array binding signal (z-score)” value [37] was -0.097, the “glycan array binding signal (z-score)” value [38] was -0.523 and the “glycan array binding signal (z-score)” value [39] was 0.16. The “glycan array binding signal (z-score)” value [40] was 0.259, the “glycan array binding signal (z-score)” value [41] was -0.351 and the “glycan array binding signal (z-score)” value [42] was 0.131. The “glycan array binding signal (z-score)” value [43] was 3.16, the “glycan array binding signal (z-score)” value [44] was -0.357 and the “glycan array binding signal (z-score)” value [45] was -0.228. For the same binder, the “glycan array binding signal (z-score)” value [46] was -0.119.

— the supplement of paper PMC8728848
